Structures are written as SMILES. Values joined by “and” are separate entries in the source; they are usually repeats but may differ in a detail not shown here. Identical values can stand only once. This is one part of the list. The main result of the screen is listed elsewhere. These columns were measured beside it and carry no call. The list favours compounds with an active or inconclusive main result.

The test can be described thus: inhibitors of triacylglycerol accumulation, primary screen, cell-based, uHTS, fluorescence, H9c2 (AID 651582). The following applies: H9c2 cells, Nile Red lipid (TAG) fluorescence; measured here:; at 12.5 µM; cells loaded with 200 µM oleic acid.
For `COc1ccc(C2NCCc3c2[nH]c2ccccc32)cc1CSc1nc2ccccc2s1` (stereo not given), the DAPI nuclei signal change (viability), lower = more cytotoxic is 8.98%.

On to `CN(C)c1ccc(CN2CCC(C(=O)NC(c3ccc(F)cc3)c3ccc4ccccc4n3)CC2)cc1` (stereo not given), for which the DAPI nuclei signal change (viability), lower = more cytotoxic was -28.2%.

For the compound `O=C(Nc1cccc(-c2csc(Nc3cccc(C(F)(F)F)c3)n2)c1)c1cc([N+](=O)[O-])cc(C(F)(F)F)c1`, the DAPI nuclei signal change (viability), lower = more cytotoxic is -25.2%.

Take `CC(C)(C)c1cc(NC(=O)C2(C)CCN2C(=O)C2(c3ccccc3)CCCC2)no1` (stereo not given): the DAPI nuclei signal change (viability), lower = more cytotoxic is -4.05%.

`O=c1cc(N2CCN(c3cccc(Cl)c3)CC2)[nH]c(=O)n1C1CCCCC1`: the DAPI nuclei signal change (viability), lower = more cytotoxic is -49.6%. Regarding `O=C(Cn1cc(C(=O)C2CC2)c2ccccc21)NCc1ccc2c(c1)OCO2`, the DAPI nuclei signal change (viability), lower = more cytotoxic was -3.14%. Take `Cc1cccc2c(N=Nc3ccc(S(=O)(=O)Nc4ccc(Cl)cc4)cc3[N+](=O)[O-])c(O)[nH]c12`: the DAPI nuclei signal change (viability), lower = more cytotoxic is -15.2%. Under `CC(=O)O[C@H]1C(=O)[C@@]2(C)[C@H]([C@H](OC(=O)c3ccccc3)[C@]3(O)C[C@H](OC(=O)[C@H](O)[C@@H](NC(=O)c4ccccc4)c4ccccc4)C(C)=C1C3(C)C)[C@]1(OC(C)=O)CO[C@@H]1C[C@@H]2O` stands -40.3%; under `Cc1noc(C)c1-c1ccc2ncnc(NCC3CCCCN3C)c2c1` (stereo not given), 13.9%; under `COC(=O)c1ccc(C(=O)OC)c(NC(=O)CN2CCN(c3ccc(OC)cc3)CC2)c1`, -22.9%. Under `COc1cc(-c2cc3nc(NCCOc4ccccc4)ccn3n2)cc(OC)c1OC` stands -9.88%; under `CCCCCCCC(=O)Nc1cc(C(=O)NCCC)ccc1N1CCC2(CC1)CC(c1cccc(Br)c1)=NO2`, 7.35%. Under `CC1(C)CC(=O)C2=C(C1)NC(SCC(=O)Nc1ccccc1)=C(C#N)C21CCCCC1` stands 82.7%; under `CS(=O)(=O)c1ccc(C(=O)OCC(=O)N2CCOCC2)cc1[N+](=O)[O-]`, -26.5%; under `CCN1CCN(Cc2ccc(NC(=O)c3cc(NC(=O)c4cncc(-c5ccc(C#N)cc5)c4)cc(OC)c3)cc2C(F)(F)F)CC1`, 9.22% and -5.99%. In the case of `CCN(CC)CCCNc1nc2cc(OC)c(OC)cc2c2nc(-c3ccccc3)nn12`, the DAPI nuclei signal change (viability), lower = more cytotoxic turned out to be 58.7%. As for `CCCCCc1ccc(-c2cn(Cc3ccc(C(=O)c4ccccc4)cc3)nn2)cc1`, the DAPI nuclei signal change (viability), lower = more cytotoxic was -21.4%. Under `CCCCCC(=O)Nc1nc(C)c(-c2csc(Nc3cc(OC)ccc3OC)n2)s1` stands -8.23%; under `Cc1[nH]c2ccccc2c1C(c1ccccn1)N1CCC(C)CC1` (stereo not given), -28.8%. Under `CCN1CCN(c2ncc3c(n2)CC(c2cc(OC)c(OC)c(OC)c2)CC3=O)CC1` (stereo not given) stands -4.74%; under `Cc1ccc(-n2ncc(Br)c(Br)c2=O)cc1`, -25.9%.

Turning to `Cc1cc(Br)ccc1NC(=O)CNC(=O)Cn1ncc(Cl)c(Cl)c1=O`, the DAPI nuclei signal change (viability), lower = more cytotoxic is -11.5%.

`C=CCC[C@H](Cc1ccc(F)cc1)C(=O)OC[C@@H](NC(=O)[C@@H](CC=C)CC(=O)N(CCO)Cc1ccccc1)C(C)(C)C`: the DAPI nuclei signal change (viability), lower = more cytotoxic is -25.7%.

`CCCCOc1ccccc1C1CC(=O)NC2=C1C(=O)CCC2` (stereo not given): the DAPI nuclei signal change (viability), lower = more cytotoxic is -23.2%. Under `CCCCOc1ccc(NC(=O)C(=O)NCCC2=CCCCC2)cc1` stands -36.6%. Under `CC(C)(C)c1ccc(C(=O)NCCC(=O)Nc2cc(Cl)ccc2N2CCOCC2)cc1` stands -6.24%. For `CCC(C)(C)NC(=O)C(c1ccc(OC)cc1)N(CC1CCCO1)C(=O)CCC(=O)Nc1cc(C)on1` (stereo not given), the DAPI nuclei signal change (viability), lower = more cytotoxic is 2.68%.

`Cn1nnnc1Sc1ncnc2scc(-c3cccc(Br)c3)c12`: the DAPI nuclei signal change (viability), lower = more cytotoxic is -0.663%. Consider `Cc1noc(C)c1CSc1nc2[nH]ncc2c(=O)n1-c1ccccc1`, for which the DAPI nuclei signal change (viability), lower = more cytotoxic is -8.21%. Take `COc1cc(C#Cc2c(-c3cncn3C)n(C)c3ccc(-c4ccc(OC)c(OC)c4)cc23)cc(OC)c1`: the DAPI nuclei signal change (viability), lower = more cytotoxic came out at 107%. Under `CSC(=S)NN=C(C)c1cccc(C)n1` stands -29.3%.

With `O=C(Nc1nc(-c2ccccn2)cs1)c1ccccc1-n1cnnn1`, the DAPI nuclei signal change (viability), lower = more cytotoxic is -30%. As for `Cc1cn(-c2cc(C(=O)Nc3ccc(C)c(NC(=O)C(=O)c4c[nH]c5ccccc45)c3)cc(C(F)(F)F)c2)cn1`, the DAPI nuclei signal change (viability), lower = more cytotoxic turned out to be 1.53%.

`COc1cc(C2C(C#N)=C(N)Oc3cc4c(cc32)OCO4)cc(OC)c1OC` (stereo not given): the DAPI nuclei signal change (viability), lower = more cytotoxic is -30.6%. Under `O=[N+]([O-])c1ccc(Sc2cccc[n+]2[O-])c2nonc12` stands -43.9%.

In the case of `CCOc1ccc(NC(=O)Cn2nnc(-c3ccccc3NC(=O)C3CC3)n2)cc1`, the DAPI nuclei signal change (viability), lower = more cytotoxic was -20.5%.

With `CN(C)c1ncnc2c1ncn2C1OC(CO)C(O)C1O` (stereo not given), the DAPI nuclei signal change (viability), lower = more cytotoxic was -46.2%. As to `CC(C)(C)c1ccc(Oc2ccc(NC(=O)c3ccccc3C(=O)O)cn2)cc1`, the DAPI nuclei signal change (viability), lower = more cytotoxic was -45.3%. In the case of `NC(=O)N/N=C/c1c(Sc2nnnn2-c2ccccc2)nc2ccccn2c1=O`, the DAPI nuclei signal change (viability), lower = more cytotoxic is -22.3%. Under `C=CC[C@@H](CC(=O)N(CCO)Cc1ccccc1)C(=O)N[C@H](COC(=O)[C@@H](CC=C)Cc1ccc(F)cc1)C(C)(C)C` stands -13.4%; under `O=C(Nc1ccc(-c2csc(Nc3ccccc3)n2)cc1)c1cccc(C(F)(F)F)c1`, -6.49%.

Turning to `CCN(CC)CCNc1nc2cc(OC)c(OC)cc2c2nc(-c3ccccc3)nn12`, the DAPI nuclei signal change (viability), lower = more cytotoxic is 39.5%. Under `C[C@@H]1CN([C@H](C)CO)C(=O)c2c(c3ccccc3n2C)-c2ccccc2CO[C@H]1CN(C)Cc1ccc(Oc2ccccc2)cc1` stands -24.3%. Under `CCN(CC)CCNc1nc(-n2nc(C)cc2C)nc2sc3c(c12)CC(C)(C)OC3` stands -16%; under `CC(OC(=O)c1ccc(S(C)(=O)=O)c([N+](=O)[O-])c1)C(=O)NC1C2CC3CC(C2)CC1C3` (stereo not given), -47.2%.

For the origin of these results see PubChem BioAssay AID651582 (Sanford-Burnham Center for Chemical Genomics, 2012).
